Data published in article PMC6919601, “Identification of Plasmodium dipeptidyl aminopeptidase allosteric inhibitors by high throughput screening” (PLoS ONE, 2019).
Screen size: about 110,000 compounds; about 230 (0.21%) showed an effect of 50% or more. This is one part of the list.

Target: DPAP1 (Plasmodium falciparum, UniProt Q8IIJ9)
Test: primary screen, percent inhibition; read by cleavage of a fluorogenic dipeptide substrate; higher = more effect of the substance
Set-up: species or system P. falciparum D10 trophozoite lysates; single well
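Note: 30 min substrate incubation versus DMSO and 10 µM JCP410 controls.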

Chain of DPAP1 (Q8IIJ9 whole entry, looked up): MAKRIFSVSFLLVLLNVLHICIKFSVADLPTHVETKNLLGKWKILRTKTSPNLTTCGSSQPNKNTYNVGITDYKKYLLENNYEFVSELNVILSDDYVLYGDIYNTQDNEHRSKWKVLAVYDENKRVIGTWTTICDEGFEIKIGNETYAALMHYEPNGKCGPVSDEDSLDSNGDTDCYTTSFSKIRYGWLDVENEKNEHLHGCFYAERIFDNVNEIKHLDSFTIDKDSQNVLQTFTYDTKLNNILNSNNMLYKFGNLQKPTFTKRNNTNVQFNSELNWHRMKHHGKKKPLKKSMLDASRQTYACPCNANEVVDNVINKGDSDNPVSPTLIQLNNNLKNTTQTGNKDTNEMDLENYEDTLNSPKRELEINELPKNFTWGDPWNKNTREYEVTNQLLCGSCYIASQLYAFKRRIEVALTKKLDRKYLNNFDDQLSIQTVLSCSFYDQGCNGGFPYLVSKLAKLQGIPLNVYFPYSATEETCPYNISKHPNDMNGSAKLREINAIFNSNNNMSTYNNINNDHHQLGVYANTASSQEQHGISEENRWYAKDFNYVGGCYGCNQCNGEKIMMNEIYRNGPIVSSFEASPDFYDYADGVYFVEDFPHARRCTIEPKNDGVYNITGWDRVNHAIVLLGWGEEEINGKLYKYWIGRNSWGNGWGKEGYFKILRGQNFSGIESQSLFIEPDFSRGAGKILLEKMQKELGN

First: CC(C)(C)c1cc(-c2nc3ccccc3[nH]2)cc(C(C)(C)C)c1O
Second: CC(C)(C)C(=O)c1cn(CC(=O)O)c2ccccc12
The “% Inhibition @ 10 uM” value of the first is lower: -8.11% for the first, 3.35% for the second.

Compared with `c1ccc(CN2CCN(Cc3c[nH]c4ccccc34)CC2)nc1`, `O=C(NCCCNCc1ccccc1)c1ccccn1` is lower in “% Inhibition @ 10 uM” value: 1.89% for the first, -0.386% for the second.

Going from `COc1cccc(C2C(C#N)=C(N)Oc3[nH]nc(C(C)(C)C)c32)c1OC` (stereo not shown) to `COc1ccc(C(=O)Nc2cccc(F)c2)cc1OC`, the “% Inhibition @ 10 uM” value rises from 2.7% to 3.1%.

Going from `CCC1CCCCN1Cc1ccc(OC)c(C)c1C` (stereo not shown) to `CCN(CC)S(=O)(=O)c1ccc2ncc(C(=O)N3CCCCC3C)c(O)c2c1` (stereo not shown), the “% Inhibition @ 10 uM” value falls from -2.34% to -6.16%.

Compared with `Cc1nnn(C23CC4CC(CC(C(=O)NC5CCCC5)(C4)C2)C3)n1`, `O=C(Nc1cccc(-c2nc3ccccc3s2)c1)C12CC3CC(CC(C3)C1)C2` is lower in “% Inhibition @ 10 uM” value: 4.95% for the first, -3.42% for the second.

First: CN1C(=O)/C(=C/c2ccccc2O)S/C1=N/c1cccc(C(=O)O)c1
Second: NC1=NC(=O)/C(=C/c2ccc(OCc3cccc(Cl)c3)cc2)S1
The “% Inhibition @ 10 uM” value of the first is higher: 14.3% for the first, -0.796% for the second.

Compared with `COc1ccccc1NC(=O)COc1ccccc1C`, `CC1=C(C(=O)Nc2ccccc2)C(c2ccccc2)NC(S)=N1` (stereo not shown) is lower in “% Inhibition @ 10 uM” value: 4.11% for the first, -0.341% for the second.

First: COc1ccc(-c2ccc(O)nn2)cc1
Second: Cc1ccsc1C(=O)NCc1ccc(Cl)cc1
The “% Inhibition @ 10 uM” value of the first is lower: -3.78% for the first, 5.25% for the second.

Going from `O=C(N[C@@H](CC1CCCCC1)C(=O)NCCN1CCCc2ccccc21)c1ccccc1` to `O=C(N/C(=C/c1cccnc1)C(=O)N1CCCCCC1)c1ccccc1`, the “% Inhibition @ 10 uM” value falls from 1.35% to 0.687%.

Compared with `Cc1nc(NC2=NCN(C(C)C)CN2)nc2ccccc12`, `CCC1=NC(C(F)(F)F)(C(F)(F)F)C2=C(CC(C)(C)CC2=O)N1Cc1ccccc1` is higher in “% Inhibition @ 10 uM” value: -5% for the first, 3.54% for the second.

Going from `NC(=O)c1c(NC(=O)C2CCCCC2C(=O)O)sc2c1CCCC2` (stereo not shown) to `O=C(O)C1CCCCC1C(=O)Nc1nc(-c2ccc(Cl)s2)cs1` (stereo not shown), the “% Inhibition @ 10 uM” value falls from -1.88% to -2.53%.

Compared with `COc1ccc(C2c3cc(OC)c(OC)cc3CCN2C(=O)c2ccc(C)cc2)cc1OC` (stereo not shown), `Cc1ccc2nc(-c3ccc(NC(=O)Nc4ccc(Cl)cc4)cc3)sc2c1` is higher in “% Inhibition @ 10 uM” value: -4.64% for the first, -0.0369% for the second.

Compared with `CCSc1nc2sc3c(c2c2nnc(S)n12)CCCC3`, `O=C(NCCC1=CCCCC1)c1ccc2nc(N3CCCCC3)sc2c1` is higher in “% Inhibition @ 10 uM” value: -3.96% for the first, 5.73% for the second.

Going from `Cn1c(=O)[nH]c(=O)c2c1nc(CN(Cc1ccccc1)Cc1ccccc1)n2Cc1ccc(F)cc1` to `CCCCCNC(=O)COc1ccc(Cl)cc1`, the “% Inhibition @ 10 uM” value falls from 2.04% to -3.72%.
